The supplement of paper PMC3334620
Whole data set: some 33,000 sequences, median “E-score (-0.5 to 0.5)” near -0.016, cut for the highest 2% near 0.32. Some of the results follow.

These sequences were tested against T1, Stp1 (UniProt B3LFK1) (assay: PBM E-score (8-mer binding enrichment) (E-score (-0.5 to 0.5)); higher = stronger / more preferred TF binding; most listed sequences are background and not binding sites). Settings: protein concentration: 200 nM; construct: GST-full length.
T1 sequence: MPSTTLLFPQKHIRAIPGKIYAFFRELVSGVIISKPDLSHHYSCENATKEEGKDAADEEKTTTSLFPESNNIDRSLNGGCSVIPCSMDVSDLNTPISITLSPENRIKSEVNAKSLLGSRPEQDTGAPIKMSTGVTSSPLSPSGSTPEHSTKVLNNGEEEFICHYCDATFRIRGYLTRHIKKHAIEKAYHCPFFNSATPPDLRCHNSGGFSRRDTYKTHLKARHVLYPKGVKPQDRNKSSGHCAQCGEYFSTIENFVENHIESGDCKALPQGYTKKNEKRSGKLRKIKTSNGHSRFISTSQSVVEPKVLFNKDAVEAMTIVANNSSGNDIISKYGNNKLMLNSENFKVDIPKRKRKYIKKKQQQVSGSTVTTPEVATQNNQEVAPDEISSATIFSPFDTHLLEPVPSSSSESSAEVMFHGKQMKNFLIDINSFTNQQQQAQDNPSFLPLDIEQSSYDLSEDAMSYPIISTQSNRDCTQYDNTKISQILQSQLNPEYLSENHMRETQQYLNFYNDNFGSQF
Method in brief: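 PURExpress in vitro transcription/translation supplied GST-tagged yeast transcription factors, either full-length or DNA-binding domain. Applied at about 100-200 nM to universal all-10-mer Agilent arrays double-stranded by primer extension, the bound protein was detected with fluorescent anti-GST. E-scores, modified Wilcoxon-Mann-Whitney statistics, were given by the Universal PBM Analysis Suite to ungapped eight-base words pooled with their reverse complements after masliner normalisation.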

Sequence	PBM E-score
CTCGTCTC	-0.0621
CGTTATTA	0.0232
ACAAGGAC	-0.141
ACGTACGC	-0.023
CAAGCATC	-0.0293
ATCTGGTA	0.183
GTAAGTTA	0.0449
AGACCTCC	-0.353
CCGACATC	-0.0143
ATGTTCAC	-0.00209
AGGCGCTG	0.311
CGTTTGTA	0.189
CCTACGGA	-0.13
GCCGTTTA	0.443
GAAGTGGC	0.151
CTCTTCAG	0.00462
AGAACAGA	-0.0692
CTTTTGAC	0.0177
CGACCAAG	-0.129
TGGAAAAA	0.102
AGTACTAG	0.132
AGTGCGGG	-0.0896
CATGCTCC	-0.248
CATGGGGA	-0.148

Sequence	PBM E-score
ATTCCAGA	0.107
GATGTCAA	-0.156
TATCCGCA	0.313
GAGAATCA	-0.0603
CATTTTTA	0.0213
AGCTGCTA	-0.205
CACTAATC	0.0861
GCTACGAC	0.0698
CACTTCTG	-0.0421
AATGAATC	0.0283
TAGAGCCA	0.0299
CATGAGTC	-0.198
GCTACACA	0.1
CTGGAAAC	0.00538
ACCGGCAG	-0.121
AACGACTC	-0.289
CAGCGCGC	-0.00184
TGCTTTAA	0.0682
GCGGCCCA	0.287
GACGTTCA	-0.114
CTATTCCC	-0.17
ATTGGGAA	-0.189
GCCCGTCA	-0.259
GGAAAACC	-0.143

Sequence	PBM E-score
CTACATTC	-0.149
CATCCATC	-0.197
GCGTCGAC	0.18
GTTCTTGA	-0.0583
ATTAGTAA	0.237
ATCGTTCG	0.0636
GAGCCCTA	0.0308
CGTATACA	0.182
CACGAATC	0.0534
CCGAGTGC	0.173
CCCTTACA	0.0253
CATGTTCA	-0.0692
AATCCTGA	-0.0136
ACATATCT	0.126
CGCTGTTA	-0.119
AATGTGTG	-0.0323
ACTTAGCC	0.113
CCTTGACA	0.0221
CTTTTTGA	-0.00282
AACCCTGG	-0.338
AGTGGGTG	-0.0322
ATTGTGTA	0.124
AGAGTCAG	-0.0573
AGCAGGAG	-0.235

Sequence	PBM E-score
CCGACTTA	0.0516
AACAAAGG	-0.104
CCACCACA	-0.182
GTGTCGAA	-0.107
AGATGATA	0.0699
AACCTAAA	0.163
AGGTACGA	-0.13
GATGAATA	0.0738
GAAGCCAC	0.0443
AAACAGCT	-0.0393
GAAGCAGA	-0.0929
CATTGCCG	0.358
AGTAGACA	0.0181
CCCGTCAA	-0.195
CACACTTC	0.0127
TCAGGGGA	-0.256
AAATCTCG	0.0684
GAACCCTA	0.00671
AGAGTTTC	-0.206
CAGGAGTA	0.109
CGGATTTC	0.0502
TCTGTCCA	0.0131
